This passage reports binding signal (log2 fold change) results from publication PMC5892938.

The list shows a part of the results. At the low end of the ranking, values are background and their order means little.

The test has as its target GST-SBP-SLBP (stem-loop binding protein) (UniProt Q14493). Put plainly: targeted RNA Bind-n-Seq.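 Further: DESeq read counts versus GST-SBP nonspecific binding control pulldown.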 Conditions: RBNS binding buffer: 25 mM Tris pH 7.5, 150 mM KCl, 3 mM MgCl2, 0.1% Tween, 0.5 mg/mL BSA, 1 mM DTT; 27 nM protein, 750 pM RNA pool; temperature not stated; high values mean tight binding.
For “GGUCACGUCUCAAUCAACUCAUGUCCCAGGGAAAUCCCUGGCUUUUUCAACAGCUCGCAGUCAAG”, the binding signal (log2 fold change) stood at 0.0751.
For “GGUCACGUCUCAAUCAACUCAAUAGAGGGGGGGAAAACCCCUUUACCCUCAUCUUCAACAGCUCGCAGUCAAG” the value was 0.225; for “GGUCACGUCUCAAUCAACUCAUCUUCAGGAGUUUACUCCUGUUAACUCAACAGCUCGCAGUCAAG”, -0.0386; for “GGUCACGUCUCAAUCAACUCAACAGAGGGGGGGAAAACCCCUUUACCCUCACUCUCAACAGCUCGCAGUCAAG”, 0.255.
The value for “GGUCACGUCUCAAUCAACUCACAAGAGGGGGGGAAAACCCCUUUGCCCUCAAUCUCAACAGCUCGCAGUCAAG” was -0.181; that for “GGUCACGUCUCAAUCAACUCAGUCUCAGGAGUUUGCUCCUGUAUAUUCAACAGCUCGCAGUCAAG” was 0.0038.
For “GGUCACGUCUCAAUCAACUCAUCUUCCAGGGAAACCCCUGGUAAUUUCAACAGCUCGCAGUCAAG” the value was -0.198; for “GGUCACGUCUCAAUCAACUCUACAGAGGGGGGGAAAACCCCUUUACCCUCACUAUCAACAGCUCGCAGUCAAG”, 0.238.
For “GGUCACGUCUCAAUCAACUCAAUUUCAGGAGUUUUCUCCUGUUAAUUCAACAGCUCGCAGUCAAG”, the binding signal (log2 fold change) came to 0.122.
The value for “GGUCACGUCUCAAUCAACUCCCAAGAGGGGGGGAAAACCCCUUUACCCUCCAAAUCAACAGCUCGCAGUCAAG” was -0.0211.
The value for “GGUCACGUCUCAAUCAACUCAACUUCCAGGGAAAUCCCUGGCGUAUUCAACAGCUCGCAGUCAAG” was 0.0255; that for “GGUCACGUCUCAAUCAACUCAUCCCCCAGGGAAAACCCUGGCAUACUCAACAGCUCGCAGUCAAG” was 0.251.
The value for “GGUCACGUCUCAAUCAACUCUUUCUCAGGAGUUUACUCCUGUAUACUCAACAGCUCGCAGUCAAG” was -0.0154.
Take “GGUCACGUCUCAAUCAACUCGUUUUCAGGAGUUUACUCCUGCAUUCUCAACAGCUCGCAGUCAAG”: the binding signal (log2 fold change) was -0.0417.
Take “GGUCACGUCUCAAUCAACUCAUCUCCAGGAGUUUGCUCCUGUAAUUUCAACAGCUCGCAGUCAAG”: the binding signal (log2 fold change) turned out to be 0.0228.
The value for “GGUCACGUCUCAAUCAACUCGUUUUCAGGAGUUUCCUCCUGCUUUUUCAACAGCUCGCAGUCAAG” was 0.0986; that for “GGUCACGUCUCAAUCAACUCCUACGAGGGGGGGAAAACCCCUUUACCCUCACUAUCAACAGCUCGCAGUCAAG” was -0.185.
The value for “GGUCACGUCUCAAUCAACUCUCUCGAGGGGGGGAAAACCCCUUUACCCUCACAUUCAACAGCUCGCAGUCAAG” was -0.0368.
For “GGUCACGUCUCAAUCAACUCUUCUUCCAGGGAAACCCCUGGUUAUGUCAACAGCUCGCAGUCAAG” the value was 0.0256; for “GGUCACGUCUCAAUCAACUCUAUCCCAGGAGUUUCCUCCUGUAUACUCAACAGCUCGCAGUCAAG”, 0.121.
On to “GGUCACGUCUCAAUCAACUCAAUUUCCAGGGAAAACCCUGGUUUUCUCAACAGCUCGCAGUCAAG”, for which the binding signal (log2 fold change) was -0.00218.
As for “GGUCACGUCUCAAUCAACUCAUCCCCAGGAGUUUUCUCCUGCAAAGUCAACAGCUCGCAGUCAAG”, the binding signal (log2 fold change) is -0.137.
The value for “GGUCACGUCUCAAUCAACUCAAUCUCCAGGGAAAGCCCUGGUUUUCUCAACAGCUCGCAGUCAAG” was 0.0377; that for “GGUCACGUCUCAAUCAACUCAGUCCCAGGAGUUUCCUCCUGUAUAUUCAACAGCUCGCAGUCAAG” was -0.0465; that for “GGUCACGUCUCAAUCAACUCAAUCCCAGGAGUUUGCUCCUGCAUUCUCAACAGCUCGCAGUCAAG” was 0.124.
The value for “GGUCACGUCUCAAUCAACUCAGUUCCCAGGGAAAACCCUGGCAUUUUCAACAGCUCGCAGUCAAG” was 0.253; that for “GGUCACGUCUCAAUCAACUCUUCCCCCAGGGAAAGCCCUGGCUUUCUCAACAGCUCGCAGUCAAG” was 0.0293; that for “GGUCACGUCUCAAUCAACUCAAUUCCCAGGGAAACCCCUGGUUAUCUCAACAGCUCGCAGUCAAG” was 0.185.
Take “GGUCACGUCUCAAUCAACUCUUCCUCCAGGGAAAACCCUGGUAAUGUCAACAGCUCGCAGUCAAG”: the binding signal (log2 fold change) is 0.123.
The value for “GGUCACGUCUCAAUCAACUCAUCUUCCAGGGAAAACCCUGGUUUUUUCAACAGCUCGCAGUCAAG” was -0.154.
The value for “GGUCACGUCUCAAUCAACUCAAUCUCCAGGGAAAACCCUGGUUUUCUCAACAGCUCGCAGUCAAG” was -0.291.
The value for “GGUCACGUCUCAAUCAACUCAUCGCCAGGAGUUUUCUCCUGUUAAUUCAACAGCUCGCAGUCAAG” was 0.223; that for “GGUCACGUCUCAAUCAACUCACAAGAGGGGGGGAAAACCCCUUUACCCUCCUUAUCAACAGCUCGCAGUCAAG” was 0.265; that for “GGUCACGUCUCAAUCAACUCUACUCCCAGGGAAACCCCUGGUAUACUCAACAGCUCGCAGUCAAG” was -0.0845.
“GGUCACGUCUCAAUCAACUCUUUCGAGGGGGGGAAAACCCCUUUACCCUCAAUCUCAACAGCUCGCAGUCAAG”: the binding signal (log2 fold change) is -0.00262.
The value for “GGUCACGUCUCAAUCAACUCAACUUCAGGAGUUUGCUCCUGUAUAUUCAACAGCUCGCAGUCAAG” was 0.0392; that for “GGUCACGUCUCAAUCAACUCUACUUCCAGGGAAAACCCUGGUUUAUUCAACAGCUCGCAGUCAAG” was 0.0206; that for “GGUCACGUCUCAAUCAACUCCUCCGAGGGGGGGAAAACCCCUUUACCCUCAACAUCAACAGCUCGCAGUCAAG” was -0.143.
For “GGUCACGUCUCAAUCAACUCUUCCUCCAGGGAAAUCCCUGGUAUUCUCAACAGCUCGCAGUCAAG” the value was -0.215; for “GGUCACGUCUCAAUCAACUCUUUUCCCAGGGAAAGCCCUGGUUAAUUCAACAGCUCGCAGUCAAG”, 0.00624; for “GGUCACGUCUCAAUCAACUCUACUUCCAGGGAAAUCCCUGGCAUUUUCAACAGCUCGCAGUCAAG”, -0.132.
Turning to “GGUCACGUCUCAAUCAACUCCACAGAGGGGGGGAAAACCCCUUUACCCUCAUAAUCAACAGCUCGCAGUCAAG”, the binding signal (log2 fold change) is 0.145.
For “GGUCACGUCUCAAUCAACUCUAUUUCAGGAGUUUUCUCCUGCUAACUCAACAGCUCGCAGUCAAG” the value was -0.00845; for “GGUCACGUCUCAAUCAACUCCUACGAGGGGGGGAAAACCCCUUUACCCUCAUAAUCAACAGCUCGCAGUCAAG”, 0.382; for “GGUCACGUCUCAAUCAACUCUAUCCCCAGGGAAACCCCUGGCUAACUCAACAGCUCGCAGUCAAG”, -0.029.
Consider “GGUCACGUCUCAAUCAACUCCCAAGAGGGGGGGAAAACCCCUUUGCCCUCGAAAUCAACAGCUCGCAGUCAAG”, for which the binding signal (log2 fold change) was -0.0324.
With “GGUCACGUCUCAAUCAACUCCAAAGAGGGGGGGAAAACCCCUUUGCCCUCACACUCAACAGCUCGCAGUCAAG”, the binding signal (log2 fold change) was -0.32.
